Experimental data reported in the supplement of paper PMC4604168 (melanoma cell lines).
Some of the results follow. Single values are uncertain, as repeats are few or missing.

What follows are molecules tested on A375 (assay: cell count relative to DMSO control; melanoma cells; higher = more viable cells). Details: library dose: low library concentration; 72 h.
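Note: cell number obtained by counting DAPI-stained nuclei in high-throughput microscope images with image analysis software, screen run in 1,536-well plates.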

Row | SMILES | cell count
1 | O=S(=O)(c1ccccc1)N(CC(F)(F)F)c1ccc(C(O)(C(F)(F)F)C(F)(F)F)cc1 + COc1cc(N2CCC(N3CCN(C)CC3)CC2)ccc1Nc1ncc(Cl)c(Nc2ccccc2S(=O)(=O)C(C)C)n1 [NVP-TAE684] (first compound 1.4 µM, partner dose 0.08 µM) | 77.9%
2 | Oc1nc(-c2ccc(C(F)(F)F)cc2)nc2c1CSCC2 + c1cc(-c2cnn3cc(-c4ccc(OCCN5CCCCC5)cc4)cnc23)ccn1 [Dorsomorphin] (first compound 2 µM, partner dose 0.4 µM) | 86.1%
3 | COc1ccc(-c2ccc3c(N4CCOCC4)nc(N4C[C@@H](C)O[C@@H](C)C4)nc3n2)cc1CO + Oc1cc(-c2nc(-c3ccccc3)[nH]c2-c2ccncc2)ccc1Cl [L779450] (first compound 0.02 µM, partner dose 0.2 µM) | 114%
4 | CCN(CC)CCCCNc1ncc2cc(-c3cc(OC)cc(OC)c3)c(NC(=O)NC(C)(C)C)nc2n1 + Cc1cc([N+](=O)[O-])ccc1NS(=O)(=O)c1cc(Cl)ccc1Cl [FH535] (first compound 0.1 µM, partner dose 1 µM) | 84.7%
5 | O=C(O)C(=O)Nc1sc2c(c1C(=O)O)CCNC2 + c1cc(-c2cnn3cc(-c4ccc(OCCN5CCCCC5)cc4)cnc23)ccn1 [Dorsomorphin] (first compound 1.66667 µM, partner dose 0.4 µM) | 88.3%
6 | O=S(=O)(c1ccccc1)N(CC(F)(F)F)c1ccc(C(O)(C(F)(F)F)C(F)(F)F)cc1 + CCCCCCCCCCCC1=C(O)C(=O)C=C(O)C1=O [Embelin] (first compound 1.4 µM, partner dose 1.2 µM) | 94.8%
7 | COC(=O)c1sccc1S(=O)(=O)Nc1ccc(Nc2ccccc2)cc1OC + O=S(=O)(c1ccccc1)N(CC(F)(F)F)c1ccc(C(O)(C(F)(F)F)C(F)(F)F)cc1 [T0901317] (first compound 1 µM, partner dose 1.4 µM) | 88.7%
8 | COc1ccc2c(c1)CCC1C2CCC2(C)C(NCCCCCCN3C(=O)C=CC3=O)CCC12 (stereo not drawn) + Oc1nc(-c2ccc(C(F)(F)F)cc2)nc2c1CSCC2 [XAV939] (first compound 0.4 µM, partner dose 2 µM) | 59.9%
9 | COc1ccc2c(c1)CCC1C2CCC2(C)C(NCCCCCCN3C(=O)C=CC3=O)CCC12 (stereo not drawn) + O=c1cc(-c2cccc3c2Sc2ccccc2S3)oc(N2CCOCC2)c1 [KU55933] (first compound 0.4 µM, partner dose 1 µM) | 86%
10 | CCN(CC)CCCCNc1ncc2cc(-c3cc(OC)cc(OC)c3)c(NC(=O)NC(C)(C)C)nc2n1 + CC(C)CCN1c2nc(Nc3cc(F)c(O)c(F)c3)ncc2N(C)C(=O)C1C [BID1870] (first compound 0.1 µM, partner dose 0.2 µM) | 95.2%
11 | O=C1NC(=O)/C(=C/c2ccc(-c3ccc(F)cc3O)o2)S1 + c1cc(-c2cnn3cc(-c4ccc(OCCN5CCCCC5)cc4)cnc23)ccn1 [Dorsomorphin] (first compound 1 µM, partner dose 0.4 µM) | 84.2%
12 | COc1cc2ncnc(Nc3ccc(Oc4ccccc4)cc3)c2cc1OC + Oc1nc(-c2ccc(C(F)(F)F)cc2)nc2c1CSCC2 [XAV939] (first compound 2 µM, partner dose 2 µM) | 121%
13 | O=C1NC(=O)/C(=C/c2ccc(-c3ccc(F)cc3O)o2)S1 + COc1cc(N2CCC(N3CCN(C)CC3)CC2)ccc1Nc1ncc(Cl)c(Nc2ccccc2S(=O)(=O)C(C)C)n1 [NVP-TAE684] (first compound 1 µM, partner dose 0.08 µM) | 79.4%
14 | CCN(CC)CCCCNc1ncc2cc(-c3cc(OC)cc(OC)c3)c(NC(=O)NC(C)(C)C)nc2n1 + c1cc(-c2cnn3cc(-c4ccc(OCCN5CCCCC5)cc4)cnc23)ccn1 [Dorsomorphin] (first compound 0.1 µM, partner dose 0.4 µM) | 101%
15 | O=C1NC(=O)/C(=C/c2ccc(-c3ccc(F)cc3O)o2)S1 + Oc1nc(-c2ccc(C(F)(F)F)cc2)nc2c1CSCC2 [XAV939] (first compound 1 µM, partner dose 2 µM) | 101%
16 | COc1ccc2c(c1)CCC1C2CCC2(C)C(NCCCCCCN3C(=O)C=CC3=O)CCC12 (stereo not drawn) + CC(C)CCN1c2nc(Nc3cc(F)c(O)c(F)c3)ncc2N(C)C(=O)C1C [BID1870] (first compound 0.4 µM, partner dose 0.2 µM) | 63.6%
17 | c1cc(-c2cnn3cc(-c4ccc(OCCN5CCCCC5)cc4)cnc23)ccn1 [Dorsomorphin] + Cn1cc(/C=C2\C(=O)Nc3cccnc32)c2ccccc21 [GW441756] (first compound 0.4 µM, partner dose 0.4 µM) | 85.1%
18 | COc1cc(N2CCC(N3CCN(C)CC3)CC2)ccc1Nc1ncc(Cl)c(Nc2ccccc2S(=O)(=O)C(C)C)n1 + O=c1cc(-c2cccc3c2Sc2ccccc2S3)oc(N2CCOCC2)c1 [KU55933] (first compound 0.08 µM, partner dose 1 µM) | 86.1%
19 | COc1ccc2c(c1)CCC1C2CCC2(C)C(NCCCCCCN3C(=O)C=CC3=O)CCC12 (stereo not drawn) + O=S(=O)(c1ccccc1)N(CC(F)(F)F)c1ccc(C(O)(C(F)(F)F)C(F)(F)F)cc1 [T0901317] (first compound 0.4 µM, partner dose 1.4 µM) | 54.5%
20 | O=C(O)C(=O)Nc1sc2c(c1C(=O)O)CCNC2 + CC(C)CCN1c2nc(Nc3cc(F)c(O)c(F)c3)ncc2N(C)C(=O)C1C [BID1870] (first compound 1.66667 µM, partner dose 0.2 µM) | 91.1%
21 | COc1ccc(COc2ccc(Cc3cnc(N)nc3N)cc2OC)cc1 + Oc1nc(-c2ccc(C(F)(F)F)cc2)nc2c1CSCC2 [XAV939] (first compound 1 µM, partner dose 2 µM) | 98.6%
22 | Oc1cc(-c2nc(-c3ccccc3)[nH]c2-c2ccncc2)ccc1Cl + c1cc(-c2cnn3cc(-c4ccc(OCCN5CCCCC5)cc4)cnc23)ccn1 [Dorsomorphin] (first compound 0.2 µM, partner dose 0.4 µM) | 84.8%
23 | COc1ccc(COc2ccc(Cc3cnc(N)nc3N)cc2OC)cc1 + COc1cc(N2CCC(N3CCN(C)CC3)CC2)ccc1Nc1ncc(Cl)c(Nc2ccccc2S(=O)(=O)C(C)C)n1 [NVP-TAE684] (first compound 1 µM, partner dose 0.08 µM) | 81.8%
24 | COc1ccc(-c2ccc3c(N4CCOCC4)nc(N4C[C@@H](C)O[C@@H](C)C4)nc3n2)cc1CO + CC(C)CCN1c2nc(Nc3cc(F)c(O)c(F)c3)ncc2N(C)C(=O)C1C [BID1870] (first compound 0.02 µM, partner dose 0.2 µM) | 84.8%
25 | O=C(O)C(=O)Nc1sc2c(c1C(=O)O)CCNC2 + CCCCCCCCCCCC1=C(O)C(=O)C=C(O)C1=O [Embelin] (first compound 1.66667 µM, partner dose 1.2 µM) | 91.8%
26 | N#Cc1c(O)c2c(-c3ccc(-c4ccccc4O)cc3)csc2[nH]c1=O + O=C1NC(=O)/C(=C/c2ccc(-c3ccc(F)cc3O)o2)S1 [AS252424] (first compound 2 µM, partner dose 1 µM) | 105%
27 | COc1ccc(COc2ccc(Cc3cnc(N)nc3N)cc2OC)cc1 + O=c1cc(-c2cccc3c2Sc2ccccc2S3)oc(N2CCOCC2)c1 [KU55933] (first compound 1 µM, partner dose 1 µM) | 102%
28 | COC(=O)c1sccc1S(=O)(=O)Nc1ccc(Nc2ccccc2)cc1OC + Cc1cc([N+](=O)[O-])ccc1NS(=O)(=O)c1cc(Cl)ccc1Cl [FH535] (first compound 1 µM, partner dose 1 µM) | 121%
